The source of these data is paper PMC12136788.

T1: UNK ZnF1-6 (called full-length) (human, UniProt Q9C0B0 30-357)
T1 sequence: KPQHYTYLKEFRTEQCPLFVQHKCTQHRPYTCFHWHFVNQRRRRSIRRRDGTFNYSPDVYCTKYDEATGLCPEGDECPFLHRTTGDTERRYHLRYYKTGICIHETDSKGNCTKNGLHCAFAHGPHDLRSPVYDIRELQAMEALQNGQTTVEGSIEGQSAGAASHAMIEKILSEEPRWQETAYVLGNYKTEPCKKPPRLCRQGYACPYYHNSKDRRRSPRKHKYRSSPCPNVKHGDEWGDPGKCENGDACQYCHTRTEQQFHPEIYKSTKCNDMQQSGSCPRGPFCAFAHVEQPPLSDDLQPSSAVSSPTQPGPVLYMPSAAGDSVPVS

B1: chr14:44924370:44924471:-|3pUTR|ENSG00000179454|unk|total|mutant (ssRNA)
RNA: GGGAGUUCUACAGUCCGACGAUCACCUUUUCCGCAUCAGGGUUUUAUUUUAUUUAUGUUUACACACUAAAGUGUCAUUUAACCCGUUAAGAAUUGUAUUCUUUUUUAUUUUAAAGGUUAUUUGUGUGUAUCAUUGUGGUAAUGCAACAGAGGAUUGAGCAUCA
B2: chr17:4671690:4673145:-|CDS|ENSG00000141456|control|control|control (ssRNA)
RNA: GGGAGUUCUACAGUCCGACGAUCGGAGGAAGAAGAACUGGAAGAGGUGGAAGACCUGGAGUUUGGCACAGCAGGAGGGGAGGUAGAAGAAGGUGCACCUCCACCCCCAACCCUGCCUCCAGCUCUGCCUCCCCCUGAGUCUCCCAACAGAGGAUUGAGCAUCA
B3: chr3:186556460:186556561:-|CDS|ENSG00000113838|unk|FALSE|unique (ssRNA)
RNA: GGGAGUUCUACAGUCCGACGAUCAGAGCCAGGAAGAUCUAUCCACUUCAUGAACUUGCACUGUGGCAACCACUGCAUGCAGAUAGUGGCUUCUCAAAGAUCUCUAAGACUUUCUCUUUCUACAAACUGGAAACCUGGUUGAGGCAACAGAGGAUUGAGCAUCA
B4: ENSG00000198589:be:win_8351|CDS|ENSG00000198589|bound_else_gene|NA|bound_elsewhere_windowed (ssRNA)
RNA: GGGAGUUCUACAGUCCGACGAUCUCACAGGAGGAGACAGAGGAGUGGUCGUGGUCCGGCAGGUGUCGGACCUCAAGCAGCUCUUUGCCUAUCCAGGAUGUGACGCUGGAAUCCGGGCCAUGGCGCUGUCUUACGACCAGAGGUCAACAGAGGAUUGAGCAUCA
B5: chr15:22826343:22826444:+|3pUTR|ENSG00000170113|msi1|FALSE|unique (ssRNA)
RNA: GGGAGUUCUACAGUCCGACGAUCAAAGUCCAUUACUCUUUUUAUUGGCUCUUGCAGGUUUUGUGUUUUAUCAUCAGUGCUUUUAGAAAUGCAGGCCUUAACUUACUGAACUGAACUUUCUGAAAACGUAAUGUAGCAGUAUCACAACAGAGGAUUGAGCAUCA
B6: ENSG00000107863:be:win_4501|CDS|ENSG00000107863|bound_else_gene|NA|bound_elsewhere_windowed (ssRNA)
RNA: GGGAGUUCUACAGUCCGACGAUCGAAGAACCCUCACCACCACACAACUCAAAACACAACAAGUCACCAACUCUCAGCUGUCGCUUUGCCAUCCUGAAAGAGAGCCCCAGGUCACUUCUGGCACAGAAGUCCUCCCACCUUGAACAACAGAGGAUUGAGCAUCA

Some of the results follow.

The target in this assay is T1, UNK ZnF1-6 (called full-length). The experiment in a line: nsRBNS (natural sequence RNA bind-n-seq); RBNS binding buffer (assumed for nsRBNS): 25 mM Tris pH 7.5, 150 mM KCl, 3 mM MgCl2, 0.01% Triton X-100, 500 ug/ml BSA, 20 U/ml SUPERase-In, 4 C; UNK is unkempt and MSI1 is Musashi-1; names of the RNAs are library labels; protein concentration not given here; high values mean tight binding.
Consider B1, for which the binding signal came to 0.866 enrichment R. Then B2, with 0.794 enrichment R; and B3, with 0.437 enrichment R. Then B4, with 0.939 enrichment R. For B5 the value was 0.51 enrichment R; for B6, 0.977 enrichment R.
